# The whole screen tested about 310,000 compounds, of which about 2,200 (0.71%) showed an effect of 50% or more. The effect is printed as a negative number. The list shows a part of the results.
# Biological target: human ether-à-go-go-related gene (hERG) potassium channel (human, UniProt Q12809)
# Assay: primary screen, population patch clamp on CHO cells stably expressing hERG
# Sequence of human ether-à-go-go-related gene (hERG) potassium channel (Q12809 whole entry, looked up): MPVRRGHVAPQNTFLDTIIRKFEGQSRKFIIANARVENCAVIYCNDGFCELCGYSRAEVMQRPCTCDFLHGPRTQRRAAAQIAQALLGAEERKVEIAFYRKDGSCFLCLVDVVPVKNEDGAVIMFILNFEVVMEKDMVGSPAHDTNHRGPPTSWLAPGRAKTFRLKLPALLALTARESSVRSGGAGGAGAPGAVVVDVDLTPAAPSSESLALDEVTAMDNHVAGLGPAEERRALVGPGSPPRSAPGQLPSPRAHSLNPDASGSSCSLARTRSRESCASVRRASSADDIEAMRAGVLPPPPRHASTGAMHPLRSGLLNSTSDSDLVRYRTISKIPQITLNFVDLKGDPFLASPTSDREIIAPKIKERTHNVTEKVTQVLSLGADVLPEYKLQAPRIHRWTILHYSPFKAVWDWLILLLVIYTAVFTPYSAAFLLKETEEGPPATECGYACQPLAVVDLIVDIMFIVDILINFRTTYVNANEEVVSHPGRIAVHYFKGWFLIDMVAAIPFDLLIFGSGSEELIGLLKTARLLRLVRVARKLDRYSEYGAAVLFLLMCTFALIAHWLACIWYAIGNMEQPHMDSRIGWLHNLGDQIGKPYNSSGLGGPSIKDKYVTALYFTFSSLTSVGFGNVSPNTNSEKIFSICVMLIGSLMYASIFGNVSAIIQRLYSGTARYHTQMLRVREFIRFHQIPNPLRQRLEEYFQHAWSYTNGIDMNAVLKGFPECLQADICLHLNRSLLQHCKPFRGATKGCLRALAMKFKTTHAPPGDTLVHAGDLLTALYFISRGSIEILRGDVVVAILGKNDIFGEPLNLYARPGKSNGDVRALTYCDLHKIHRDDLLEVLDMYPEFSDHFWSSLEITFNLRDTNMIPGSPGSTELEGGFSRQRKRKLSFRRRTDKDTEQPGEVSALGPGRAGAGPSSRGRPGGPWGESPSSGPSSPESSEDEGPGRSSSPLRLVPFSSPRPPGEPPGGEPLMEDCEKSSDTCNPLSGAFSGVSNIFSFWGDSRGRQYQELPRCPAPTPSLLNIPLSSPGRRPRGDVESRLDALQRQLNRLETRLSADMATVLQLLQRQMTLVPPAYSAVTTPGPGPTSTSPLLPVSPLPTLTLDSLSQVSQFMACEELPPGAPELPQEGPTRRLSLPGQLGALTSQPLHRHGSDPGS
row,Compound,"hERG current change (%, negative = inhibition) at 1uM"
1,CC1(C(=O)NCc2ccc(F)cc2)Oc2ccccc2NC1=O (stereo not drawn),-2.56%
2,N#C/C(=C(/O)CCl)c1nnc2n1CCCCC2,11.1%
3,COc1cccc(CNc2nn[nH]n2)c1OC,16.1%
4,CC(C)c1ccc(-c2nc3c([nH]2)c(=O)n(C)c(=O)n3C)cc1,10.7%
5,COCCn1c(SCC(=O)N2CCCCC2)nc2c(c1=O)SC(C)C2 (stereo not drawn),12.4%
6,CC(C)Cc1nc2ccccc2[nH]1,14.7%
7,COc1ccc2[nH]c(C(=O)O)c(CCC(=O)O)c2c1,17.2%
8,O=c1c2ccccc2nnn1Cc1ccc(Br)cc1,13.5%
9,COc1cccc(C(=O)Nc2cnn(C(C)C)c2)c1,15.4%
10,Clc1ccc(C2[C@H]3CN(Cc4ccc(-c5ccccc5)cc4)[C@H](c4ccccc4)C34CC2(c2ccccc2)C4)cn1 (stereo partly drawn),3.84%
11,N#Cc1cc(-c2ccc(Cl)cc2)cnc1Sc1ccccc1,2.86%
12,CC1CCCCC1NC(=O)CN1CCN(Cc2ccccc2Cl)C1=O (stereo not drawn),2.68%
13,C/C(N)=C(/C#N)C(=O)CSc1nc2ccc(C)cc2[nH]1,11%
14,CCC(=O)Nc1cccc(NC(=O)c2ccc(C)cc2Cl)c1,24.1%
15,CCCCn1c(N)c(N(CCOC)C(=O)COC(=O)CCOc2ccccc2)c(=O)[nH]c1=O,5.89%
16,CCOc1ccccc1NC(=O)/C(C#N)=C/c1cccnc1,10.7%
17,COc1cccc(/C=N/Nc2nnc(C)n2N)c1OCc1ccccc1Cl.Cl,9.89%
18,Cc1[nH]nc2nc3c(c(OC(=O)c4ccccc4)c12)c(=O)n(C)c(=O)n3C,5.4%
19,O=C(O)CC1=C(Nc2ccccc2)C(=O)N(c2ccccc2)C1c1ccc(Br)cc1 (stereo not drawn),12.2%

row,Compound,"hERG current change (%, negative = inhibition) at 1uM"
1,CC(=O)N1CC(=O)Nc2ccc(Br)cc2C1c1ccc(F)cc1 (stereo not drawn),2.13%
2,Cc1cc(C)c(C(=O)COC(=O)[C@H](C)Nc2ccc(C(F)(F)F)cc2[N+](=O)[O-])c(C)c1,18.8%
3,COc1ccc(N2CCN(C(=O)CN3C(=O)NC(C)(C4CC4)C3=O)CC2)cc1 (stereo not drawn),8.53%
4,COc1ccc(CCN2C(=O)C(O)=C(C(=O)c3ccco3)C2c2cccs2)cc1OC (stereo not drawn),18%
5,O=c1[nH]nc(-c2ccc(F)cc2)cc1Cc1ccccn1,7.38%
6,COc1ccc(OC)c(NC(=O)Nc2nnc(N3CCC(C)CC3)s2)c1,12%
7,Cc1ccccc1NC(=S)NCc1ccc(Cl)cc1,11.6%
8,COc1ccc(OCCN2C(=O)c3cccc(N)c3C2=O)cc1,9.4%
9,Cc1ccc(S(=O)(=O)Nc2ccc(Cl)cc2)cc1NC(=O)c1cc2c(s1)CCCC2,-1.78%
10,Cc1ccc(-n2c(CSc3nc(C)cc(C)n3)nnc2SCC(=O)Nc2nccs2)cc1,10.1%
11,COc1cc(C(=O)NCCOc2ccccc2C)cc(OC)c1OC,12.3%
12,C/C(=N\NC(=O)c1ccc(F)cc1)c1cccc(NC(=O)c2cccc(F)c2)c1,12.6%
13,Cc1ccc(Cn2c(N3CCN(C)CC3)nc3c2c(=O)[nH]c(=O)n3C)cc1,8.23%
14,COc1ccccc1NC(=O)Nc1ncccc1C,-0.0475%
15,O=C(c1ccccc1Cl)N1CCC(N2CCC(C(=O)N3CCCC3)CC2)CC1,1.54%
16,COc1ccc(CCNC(=O)COc2ccc(S(=O)(=O)N3CCCC3)cc2)cc1,4.23%
17,Cc1cccc(C(=O)N[C@H](C(=O)Nc2nc3ccc(S(C)(=O)=O)cc3s2)C(C)C)c1,2.4%
18,COc1ccc(CC(=O)NNC(=O)c2cccs2)cc1,7.01%
19,Cl.c1ccc(CSC2=NCCCN2)cc1,13.3%

row,Compound,"hERG current change (%, negative = inhibition) at 1uM"
1,COc1ccc(N2C(=O)CC(N3CCN(c4ccccc4)CC3)C2=O)cc1 (stereo not drawn),14.5%
2,O=C(Cn1cnc2ccccc21)Nc1ccc(SC(F)F)cc1,-12.5%
3,CCOC(=O)N1CCN(C(=O)COc2ccc(S(=O)(=O)Nc3ccc(OCC)cc3)cc2)CC1,11.5%
4,CCC(Cc1ccccc1)NS(=O)(=O)c1csc(C(N)=O)c1 (stereo not drawn),22.5%
5,O=C(Nc1cccc(C(F)(F)F)c1)/C(=C\c1ccco1)NC(=O)c1cccs1,6.67%
6,Cn1cc(C(=O)NS(=O)(=O)Nc2ccc(Br)cn2)c2ccccc21,14.9%
7,COCCNc1nc(CSc2ccccc2)nc2sc(C)c(C)c12,11.8%
8,O=C(CC1CCCC1)N1CCN(S(=O)(=O)c2ccccc2)CC1,-6.89%
9,O=C(CCN1C(=O)c2ccccc2C1=O)N1CCN(c2ccccn2)CC1,-5.13%
10,OC(Cn1cccn1)c1ccccc1 (stereo not drawn),21.5%
11,CN(Cc1ccccc1)C1CCNCC1.Cl,17.5%
12,COc1ccc(C)cc1N(C(=O)c1ccc(F)cc1)c1nc2ccccc2s1,8.84%
13,COC(=O)Nc1ccc2c(c1)N(C(=O)CCCl)c1ccccc1S2,12.5%
14,Cc1ccccc1C(=O)Nc1ccc(S(=O)(=O)N2CC(C)OC(C)C2)cc1 (stereo not drawn),16.6%
15,Cc1cc(C)cc(OCC(=O)NC2CCCc3ccccc32)c1 (stereo not drawn),0.476%
16,CCOC(=O)CSc1nnc(-c2cc(OC)c(OC)c(OC)c2)o1,9.22%
17,COc1ccc(OC)c(N(CC(=O)O)S(=O)(=O)c2ccc(OC)c(OC)c2)c1,8.13%
18,CCS(=O)(=O)Nc1ccc(-c2cc(-c3ccccc3)c3cc(C)ccc3n2)cc1,-0.275%
19,CCCn1c(NC(=O)C2CCN(S(=O)(=O)c3cccs3)CC2)nc2ccccc21,-5.74%

# From article PMC4336329 (PLoS ONE, 2015)
